In the supplement of paper PMC12632987:
The full ranking holds about 4,500 sequences; the median of “median log2 fold change of GCK-ALFA target abundance (FLAG IP / Myc IP barcode read proportion)” is about 0.078, and the lowest 2% start at about -0.6. Some of the results follow.

B1: GBRAP_52_5857 (protein)
chain: SSARMRALAEELLALRLAGKEEELEARVKELVATLSEEEILALLEELAALAKEADKEGAEAILDVAELLADEAEEAGFDEDELSYALAEVAAAAYKQLQK
B2: GBRAP_125_3028 (protein)
chain: HMEALAADLGRIARALGLSEGDVAELRENALAHGLKGAMIALALAEGDEELADLLEKLSEEEVAAVVRRLAAELAANPDLTPEEVRALLRRLAREAVAAS
B3: GBRAP_78_6668 (protein)
chain: EVEELVDKAVEELSKAARLALKLPEEHRNELLDLLVDAASYILEAEENGYDLELLKKAAEKLEEAIKLVEELNNEEYKPLLEELKKAKEYLEKAIKLLEK
B4: GBRAP_52_6367 (protein)
chain: MLEEAVEKLEKAVEAVLEGKEEEAEKILREIVENYSDEVILEAAERVAERIKGKTLEEAEAFLETALRLADIGDELGRDDVVLDEIEAIAARTYVEIKAK
B5: GBRAP_160_4188 (protein)
chain: EEEVEKLIKEIKEIAEEAIKLIEGETYEERLVIVRGAFGQIIMLVMESDAVSDEAEDKIAEITDEAVEYLDKNPELTEEEIKKLIKEATEKIIETIKKLS
B6: GBRAP_125_3057 (protein)
chain: SREEAIENLLRLARRLGLSDDDVEELRRIAEAGSVKNTLIAIALALGEEELADALEKLTEEEVIELLKRAAERLEENPELTPEEVKALLLELAEELLAKR
B7: GBRAP_96_7100 (protein)
chain: MLEEARRLVRELLEALDTDEERARELARELLEFPVEVIVEALVEEVKTPEEAYKLTRVLLSLGDPKAEEVALEFAEESDGERSKAVIEAMEEYEKEREAA
B8: GBRAP_128_3486 (protein)
chain: STEEVVAKTKELMEKIKNSSLEEVEEIARELVELLGQADPESREAATEVILEKLKELSAEKLEILADVLRERQPELDPFGAEQAAEIQVEALNEAEEKEE
B9: GBRAP_39_5693 (protein)
chain: EEDEENEDHVSYLQALAAKRLYETGISLEEATKEAKKILEEEAKRNPELKELLEELIKLAEEKGDEAKEVLIGVAVLIEEGEPKEEIKEHIEKAIKYFKK
B10: GBRAP_78_6583 (protein)
chain: ELEKLFDEIYAKLDEAHRLARQLPPDVRNEVLAELTEASSYLLEAEEEGNKLESLKEAIAALDEALAIARAADDPVAPALAAELDAAKALAEEALKLVKK
B11: GBRAP_52_6142 (protein)
chain: MREELRKIAEEILELVKEGKLEEAKKLADELVKTKNDEELKLFADEFAEVVRELRPEELDYAAKALEIIVDSMEKAGVDEKIISYVLGKGTRAMYEVELR
B12: GBRAP_52_6307 (protein)
chain: MEERMEALARELLALVRAGDLEGARELARELVETLSEEELLALAEALAKLAATADEEELDALAELLDILEDEMEKAGVDEGVIAEILGIITTALYEAELA
B13: GBRAP_184_5140 (protein)
chain: KTLRESIDAKTVEEAIKKAKEAFEKAKKENAKLVLFVFADGLSVEEVEKLMKELKKLIEEYGLKDATVILVVDADEEEADKIIEIADKYGIRVVVALNEE
B14: GBRAP_128_3286 (protein)
chain: APEELLKKVEELIEEIENSDEEEARKLAEELAELLGSVSVEEAEAIAEIIEEKLPELSKEKLEILAEVLDKARPKMTPEKAAIAADIASTALLEAEELEE
B15: GBRAP_74_6522 (protein)
chain: MDALLAALEAAAAAGDVAALVALLREIIATGDLATIERAARIAVAFVEAHLDALTPEELAALADALAELADRLMELGGDPATINAVAAAAVALEEALAAR
B16: GBRAP_26_5429 (protein)
chain: MEEIFKELEEKMEEAADKLLDPEKAAGLKAEISTEILEVEEKVEEENLSIEEIKELLEKMIERIVEAARELGVDEETLKKLREEFEKYAEEALKKLEKER
B17: GBRAP_117_2590 (protein)
chain: SALEKEIAEKIKETVEEFKKAYEKMKTLSPEEKKKLEEEMKEKIYKVLKEALEKLSLEKVYEFIEEATKDLNAEEYFLFESLLEEALAEIKEEEKKKEEE
B18: GBRAP_128_3370 (protein)
chain: VDEAALAEVAAMARAMAKADVAEARELARALVRHLGTLSPEEREAAVEILKKELPKLSAEKLDVLADVIRELRPTLDPETAALLAELEVEALNEREEKEE
B19: GBRAP_26_5421 (protein)
chain: LEEKFREMADEMDEAFDELLDPELAAAAKTEFYTLLEEAEEEIEKNKNDLEKQKAILEKMLKEFEKALKELGVSEENRAKLMKKLKEGMEKILEYLEKKL

Each binder was assayed against GABARAP, O95166 (assay: median log2 fold change of GCK-ALFA target abundance (FLAG IP / Myc IP barcode read proportion) (log2 ratio); each designed protein is fused to an ALFA-tag nanobody in HEK293 cells to bring the named protein to FLAG-tagged glucokinase (GCK); Myc marks an untargeted standard; higher = target protein stabilised (more abundant)). Conditions: target protein: 3xFLAG-MCP-GCK-ALFA reporter; HEK293 landing pad (RPLP).
Method in brief: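 An ALFA-nanobody-fused binder library was recombined into HEK293 landing-pad cells and induced with 2 μg mL^−1 doxycycline. Cells were transfected with a plasmid expressing a FLAG-tagged target and a Myc-tagged standard. After 48 h, lysates underwent anti-FLAG and anti-Myc immunoprecipitation, and circular RNA barcodes were reverse transcribed, amplified and sequenced. Target abundance is the per-binder median log2 ratio of FLAG to Myc barcode read proportions. Barcodes needed ≥10^−7 proportion in both replicates, binders ≥3 barcodes per replicate, and a 10^−6 pseudocount was added; the two replicates were pooled.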

Sequence of GABARAP, O95166 (O95166 whole entry, the tested form may be a part): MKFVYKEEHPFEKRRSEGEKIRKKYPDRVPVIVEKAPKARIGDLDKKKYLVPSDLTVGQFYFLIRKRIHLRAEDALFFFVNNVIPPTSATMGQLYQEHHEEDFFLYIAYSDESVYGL

Row | Binder | median log2 fold change
1 | B1 | -0.305
2 | B2 | 0.202
3 | B3 | -0.37
4 | B4 | -0.223
5 | B5 | 0.0875
6 | B6 | 0.137
7 | B7 | 0.218
8 | B8 | 0.224
9 | B9 | 0.24
10 | B10 | 0.0104
11 | B11 | 0.151
12 | B12 | -0.37
13 | B13 | 0.144
14 | B14 | 0.00587
15 | B15 | 0.209
16 | B16 | 0.241
17 | B17 | 0.0424
18 | B18 | 0.37
19 | B19 | 0.347
